Results published in PubChem BioAssay AID2546 (National Center for Advancing Translational Sciences (NCATS), 2010).
Screen size: about 310,000 compounds; about 11,000 (3.5%) were called active. Inconclusive means that the source gave no clear call. Such entries were picked first, then a sample of the others. The call rests on the fitted dose curve; in most records, active means well fitted inhibition curve with a large enough effect; inconclusive means small, poorly fitted or top-dose-only effect, or effect the other way; inactive means flat fitted curve, though single readings scatter. No potency is given beside an inconclusive call; the fits are too rough.

Assay: VP16 counterscreen qHTS for inhibitors of ROR gamma transcriptional activity;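 further: Gal4-VP16 expression switched on by copper sulfate through the metallothionein promoter; nearly all actives have a fitted effect of over 50% in size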
Conditions: Drosophila S2 Gal4-VP16 UAS-luciferase, luminescence, 20 h; activity, negative = inhibition: at 53.6 µM (top of the series)
On the % scale 0 is the no-effect control and ±100 the full control effect; potency means the concentration at half of the fitted maximal effect; tags describe the fitted curve by direction and shape.

Compound | Potency | activity, negative = inhibition
CN1CCN(c2ncc3nc(-c4cn(C)c5ccccc45)c(=O)n(C)c3n2)CC1 | inconclusive [inhibitor, single point] | 
Cc1cc(=O)[nH]c(SCC(=O)Nc2cccc(C(F)(F)F)c2)n1 | inconclusive [inhibitor, single point] | 
COCCCn1c(-c2cccc(Cl)c2)nc2c1c(=O)[nH]c(=O)n2Cc1ccccc1 |  | inactive: 1.07%
CSc1nn(CCc2ccncc2)c(=S)s1 | inconclusive [inhibitor, single point] | 
CCCC(=O)N1N=C(c2ccccc2)CC1c1cn(C)c2ccccc12 (stereo not drawn) |  | inactive: -4.37%
O=C(Nc1ccc(Cl)cc1)Nc1ccccc1Sc1ncc([N+](=O)[O-])s1 | inconclusive [inhibitor, single point] | 
CCOC(=O)c1cc(-c2ccccc2)nc2nc(N3CCCCC3)sc12 |  | inactive: -0.852%
O=C(CCCN1C(=O)/C(=C/c2ccccc2Cl)SC1=S)NNC(=O)c1ccc(Cl)cc1Cl | active: 4.47 µM | 
O=C1CCCCC1Sc1nnc(-c2ccc3c(c2)OCO3)o1 (stereo not drawn) | active: 0.891 µM | 
Cc1cccc(-n2ccnc2CN2CCN(C(C)C)C(CCO)C2)c1 (stereo not drawn) |  | inactive: -5.6%
COc1ccc(/C=N/N2CCN(Cc3ccc(C)cc3)CC2)cc1Br |  | inactive: -5.67%
COc1ccc(-c2ccc(C3C4C=CCCC4(C)C(=O)N3Cc3ccccc3)c(F)c2)cc1 (stereo not drawn) | inconclusive [activator, single point] | 
CCOC(=O)c1c(S(=O)(=O)N2CCN(Cc3ccccc3)CC2)c(C)n(C)c1C |  | inactive: -5.86%
COC(=O)c1cc(-c2ccc(C)o2)nc2ccccc12 | inconclusive [inhibitor, single point] | 
CN(CC(=O)NCc1ccc(F)cc1)CC(=O)Nc1ccc(Cl)c(C(F)(F)F)c1 | inconclusive [inhibitor, single point] | 
C/C(=N\NC(=O)c1cc(-c2cccc(OC(C)C)c2)nc2ccccc12)c1cccnc1 | inconclusive [inhibitor, single point] | 
COc1ccc(S(=O)(=O)N2CCc3ccccc32)cc1C(=O)OCc1c(C)noc1C |  | inactive: 2.6%
Cc1nn(C)c(C)c1/C=C/C(=O)c1ccccc1 | inconclusive [inhibitor, single point] | 
COC(=O)c1cc(CSc2nc3ccccc3c(=O)n2C)oc1C | inconclusive [inhibitor, single point] | 
COc1ccc(NC(=O)C2CCCN(C(=O)Nc3ccc(F)cc3)C2)cc1 (stereo not drawn) |  | inactive: -4.78%
O=C(Nc1ccc(Cl)cc1)Nc1ccccc1C(=O)NCc1ccco1 | inconclusive [inhibitor, full curve] | 
NNC(=S)NC1CCCCC1 | active: 7.08 µM | 
Cc1ccc(NC(=S)NN2CCOCC2)c(C)c1 | inconclusive [inhibitor, single point] | 
CN(C)S(=O)(=O)c1ccc(-c2csc(N/N=C/c3ccco3)n2)cc1 | inconclusive [inhibitor, single point] | 

Compound | Potency | activity, negative = inhibition
Cc1ccccc1NC(=O)c1nnn(-c2ccc3c(c2)OCCO3)c1N | inconclusive [inhibitor, partial curve] | 
CC[C@H](C(=O)[C@H](C)[C@H](O)[C@H](C)CCc1ccc(C)c(O)c1C(=O)O)[C@H]1O[C@](CC)([C@@H]2CC[C@@](O)(CC)[C@H](C)O2)C[C@H]1C | active: 6.31 µM | 
COC(=O)c1cccnc1-n1c(=O)c2cccnc2n(Cc2cccc(C(F)(F)F)c2)c1=O |  | inactive: -12.3%
C/C(Cn1nc([N+](=O)[O-])cc1C)=N\NC(=O)c1ccc(O)cc1O | active: 14.1 µM | 
O=C(Nc1nccs1)c1ccc(S(=O)(=O)NCc2cccs2)cc1 | inconclusive [inhibitor, single point] | 
Cn1c(=N)n(CC(=O)c2ccc(F)cc2)c2ccccc21 | active: 11.2 µM | 
O=C(CCCCn1c(=O)[nH]c2ccccc2c1=O)N1CCN(c2cccc(C(F)(F)F)c2)CC1 | inconclusive [inhibitor, single point] | 
O=C(Nc1nccs1)c1ccc(Br)s1 | inconclusive [inhibitor, single point] | 
COc1ccccc1OCCCCN1CCN(C(c2ccccc2)c2ccccc2)CC1 |  | inactive: -21.6%
Cc1cc(O)c(N)c(C)c1Cl | inconclusive [inhibitor, single point] | 
CNC(=S)N/N=C/c1ccc(N(C)C)cc1 | active: 7.08 µM | 
CCc1ccc(C2C3=C(CC(C)(C)CC3=O)OC3=C2C(=O)CC(C)(C)C3)cc1 |  | inactive: -6.24%
CCc1nnc(NC(=O)CSc2nnc(-c3ccco3)n2CCOC)s1 |  | inactive: 3.35%
COc1cccc(-c2cc(C(=O)Nn3cnnc3)c3ccccc3n2)c1 | inconclusive [inhibitor, partial curve] | 
Cc1ccccc1NC(=O)C(=O)NCc1ccccn1 |  | inactive: 3.08% [at 0.365 µM]
CCOCCn1cnc2sc(C(=O)NCCCN3CCOCC3)c(C)c2c1=O |  | inactive: 0.505%
CC(=O)Nc1sc2c(c1C(c1ccccc1Cl)N1CCN(CCO)CC1)CCCC2 (stereo not drawn) |  | inactive: -18.2%
Cc1ccc(C(=O)NC(=S)NCc2ccco2)cc1 | inconclusive [inhibitor, single point] | 
Cc1ccc(NC(=O)c2ccc(OC(=O)c3cc4ccccc4o3)cc2)cc1 | inconclusive [inhibitor, partial curve] | 
N#CC1=C(N)Oc2cc(O)c(C=Nc3ccccc3)cc2C1c1ccccc1 (stereo not drawn) | inconclusive [inhibitor, single point] | 
Cc1cc(/C=C2/C(=O)NN(c3ccccc3)C2=O)c(C)n1-c1cccc(O)c1 | active: 15.8 µM | 
CN(C)CCOc1nc(-c2ccccc2)nc2c1oc1ccccc12 | inconclusive [inhibitor, single point] | 
COc1ccc(C(=O)CC(=O)C(=O)Nc2cc(OC)c(OC)c(OC)c2)cc1 | inconclusive [inhibitor, single point] | 
COc1cc(/C=C/C(=O)c2ccc3c(c2)OCCO3)cc(OC)c1OC | inconclusive [inhibitor, single point] | 
